The supplement of paper PMC3334620
Whole data set: some 33,000 sequences, median “E-score (-0.5 to 0.5)” near -0.035, cut for the highest 2% near 0.35. This is one part of the list.

target: T1, Pdr3 (UniProt P33200); experiment: PBM E-score (8-mer binding enrichment) (E-score (-0.5 to 0.5)); higher = stronger / more preferred TF binding; most listed sequences are background and not binding sites; conditions: protein concentration: 200 nM; construct: GST-full length
T1 sequence: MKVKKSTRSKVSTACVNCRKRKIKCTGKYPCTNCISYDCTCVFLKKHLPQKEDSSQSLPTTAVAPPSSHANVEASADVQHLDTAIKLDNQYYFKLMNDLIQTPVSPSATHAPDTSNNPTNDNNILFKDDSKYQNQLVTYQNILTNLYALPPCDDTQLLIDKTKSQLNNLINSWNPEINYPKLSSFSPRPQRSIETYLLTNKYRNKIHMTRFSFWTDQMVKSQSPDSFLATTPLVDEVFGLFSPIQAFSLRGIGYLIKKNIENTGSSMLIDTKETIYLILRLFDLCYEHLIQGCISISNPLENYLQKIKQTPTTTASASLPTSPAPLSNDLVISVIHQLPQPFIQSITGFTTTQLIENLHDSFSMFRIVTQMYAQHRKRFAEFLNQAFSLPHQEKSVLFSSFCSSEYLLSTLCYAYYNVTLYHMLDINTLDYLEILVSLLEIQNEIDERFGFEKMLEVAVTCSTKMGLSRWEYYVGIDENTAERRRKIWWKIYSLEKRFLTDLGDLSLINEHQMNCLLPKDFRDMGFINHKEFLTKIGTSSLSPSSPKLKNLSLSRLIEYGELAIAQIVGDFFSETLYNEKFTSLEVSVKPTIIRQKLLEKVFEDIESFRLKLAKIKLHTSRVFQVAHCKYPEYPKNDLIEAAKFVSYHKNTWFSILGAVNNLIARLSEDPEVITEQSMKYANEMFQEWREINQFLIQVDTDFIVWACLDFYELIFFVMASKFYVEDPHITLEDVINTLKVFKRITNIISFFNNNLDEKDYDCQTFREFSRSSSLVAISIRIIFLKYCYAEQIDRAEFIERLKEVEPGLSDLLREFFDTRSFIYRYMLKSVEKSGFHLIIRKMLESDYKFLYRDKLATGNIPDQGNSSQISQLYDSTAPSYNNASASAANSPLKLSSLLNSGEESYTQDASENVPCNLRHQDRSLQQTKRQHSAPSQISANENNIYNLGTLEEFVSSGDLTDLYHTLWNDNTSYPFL
Procedure, shortened: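 Each ungapped eight-base word and its reverse complement, pooled, received an E-score from the Universal PBM Analysis Suite. Underlying scans, normalised with masliner, recorded fluorescent anti-GST bound to GST-tagged yeast transcription factors. These were applied at about 100-200 nM to universal all-10-mer Agilent arrays double-stranded by primer extension.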

| Sequence | PBM E-score |
| --- | --- |
| GCACCCCC | -0.0953 |
| ACCGTGAT | 0.0525 |
| ACCGGGTG | 0.318 |
| ACCTGACG | -0.179 |
| GGGGAACC | -0.157 |
| TGGTCACA | -0.118 |
| CTGACCAA | -0.0236 |
| AGCAACCT | -0.0661 |
| AACAGGTG | -0.152 |
| CCAAATCG | -0.113 |
| CCTCAGAC | 0.0121 |
| GGGGTACA | -0.134 |
| ACAATACC | 0.0775 |
| ACCACATC | 0.0699 |
| ATGTTGAG | -0.0775 |
| AACTTTGG | -0.108 |
| GCAATTCC | 0.22 |
| AAACAAGT | -0.0921 |
| CTGGGGCC | 0.0244 |
| GCAATGGA | -0.0873 |
| ACTACCGG | 0.11 |
| CTGCCTCA | -0.27 |
| GATTAGCA | -0.0144 |
| TCGCAACA | -0.038 |
| ATTGACCA | -0.0974 |

| Sequence | PBM E-score |
| --- | --- |
| CGCTAATA | 0.158 |
| GTTAAACA | -0.182 |
| AGCCCCGC | 0.11 |
| AAGTGGCA | -0.0456 |
| GATGCCCC | -0.161 |
| AAACCCTG | -0.023 |
| CACTCGGG | 0.173 |
| CCCCAGCG | -0.163 |
| TACCCCAA | -0.0565 |
| AGGTGCTG | -0.0671 |
| AAAATTAG | 0.109 |
| AACGAGAC | -0.102 |
| CATACAAA | 0.141 |
| AATACAGT | -0.144 |
| CTCACGTA | -0.103 |
| AAGTTTAA | -0.158 |
| CGAACGTC | -0.146 |
| AAAGGGTT | -0.153 |
| ACATACAA | -0.0319 |
| GACCTGCA | -0.288 |
| ATGCCTGA | -0.159 |
| ATTAGCCC | -0.0315 |
| CTCCCAAG | -0.264 |
| GTCCTTCA | -0.0595 |
| CATCCGTC | 0.249 |

| Sequence | PBM E-score |
| --- | --- |
| AGATTGCC | 0.0473 |
| CGACAATA | 0.156 |
| TCGCATAA | 0.0329 |
| GTGATACA | -0.133 |
| GAATGCCC | 0.0734 |
| ATGTGGAG | -0.0421 |
| CCAGATTC | -0.141 |
| CACGCCCG | 0.208 |
| TCGCAGCA | -0.174 |
| GAAACATC | -0.0968 |
| ACCTAATC | 0.0254 |
| AAAGATAT | 0.139 |
| GGAAGCAA | 0.113 |
| GACACGGC | 0.171 |
| ATCATTTA | 0.0551 |
| CATAAGGC | -0.0651 |
| ATTGCGCG | 0.271 |
| CTACATCA | -0.0584 |
| TAGTATCA | 0.172 |
| AGGTGATG | -0.209 |
| GAAAGGAA | 0.104 |
| GCACTGTA | 0.0604 |
| ATTGGAAC | 0.137 |
| AATGACCT | -0.184 |
| CCATGGAA | 0.156 |

| Sequence | PBM E-score |
| --- | --- |
| GTGTGGAA | -0.0589 |
| CTCTGTTA | 0.00683 |
| AGTAGAGG | -0.236 |
| TAACTGTA | -0.323 |
| AGTTACGC | -0.182 |
| GCCACGAC | 0.0242 |
| CTGACCAG | -0.099 |
| ATAGACGG | 0.165 |
| AGCGAGAG | -0.0257 |
| ATGTCGTC | -0.0495 |
| ACTTCGCC | 0.136 |
| CGAGTTCA | -0.107 |
| AAGGATAC | -0.00551 |
| GGGCCTAA | -0.167 |
| CCTTTACA | -0.131 |
| CCACGATA | 0.0643 |
| AAACTGAA | -0.129 |
| ACGACCGG | 0.124 |
| AAGGGTTC | -0.025 |
| ACTTATTG | -0.165 |
| ATTATGTG | 0.0514 |
| AACAGCCA | 0.00093 |
| CTCTAATA | -0.204 |
| ACCTCGTG | -0.145 |
| GCGCGACC | 0.132 |

| Sequence | PBM E-score |
| --- | --- |
| GTCCATGA | -0.209 |
| CAGAAGGA | -0.262 |
| AACCTAAG | -0.163 |
| CAGTTAAA | -0.192 |
| AGCCCTCG | -0.137 |
| TTCTTAAA | -0.143 |
| AACAGATG | -0.155 |
| CCGTATGC | 0.258 |
| CACTGTCA | -0.237 |
| CTCGCCTA | -0.092 |
| CAGGAAAA | 0.0238 |
| CGCGAGAA | 0.0823 |
| CCCGCAAA | 0.198 |
| AAACAAAA | -0.0866 |
| TACCTAGA | -0.195 |
| AACTAGGG | -0.256 |
| ACAAAAAA | 0.0183 |
| CGCCTGCA | -0.0772 |
| ACGGACTG | 0.0941 |
| CGAACTAA | 0.0447 |
| AGCCCGCT | -0.183 |
| CGACCATA | 0.0144 |
| ATACGTCG | -0.0614 |
| TACAAATA | -0.0219 |
| AAAGACAT | -0.211 |

| Sequence | PBM E-score |
| --- | --- |
| CGGACCAC | 0.35 |
| CATTTGTA | -0.0519 |
| AAAGTTAC | -0.127 |
| AGGGGCAT | -0.117 |
| GGTATTAA | 0.141 |
| AGACTGAG | -0.241 |
| GCGATAAC | 0.0751 |
| CATGTGAG | -0.134 |
| AAAAACCA | -0.0328 |
| GGAAATCC | 0.224 |
| GACGACGA | 0.026 |
| GCACAAAA | 0.134 |
| ACCCTCTC | -0.0915 |
| CACCATCG | -0.207 |
| CTCGCAAA | -0.131 |
| GTCCCTAA | -0.0658 |
| GACTGTAC | -0.206 |
| AGCAGAGC | -0.158 |
| AGGACGTC | -0.0612 |
| ACAATGCC | 0.0544 |
| ATAAAGGG | -0.138 |
| GCCTTGCA | -0.139 |
| CCTCTAAA | -0.248 |
| AGCATCTC | -0.16 |
| CCTGATCA | -0.236 |

| Sequence | PBM E-score |
| --- | --- |
| CGTCATCC | 0.199 |
| AAAGGATC | -0.172 |
| CCTGGGAA | -0.0887 |
| CCGATTCG | 0.25 |
| ACGGTCAA | 0.166 |
| AACGATAA | -0.0277 |
| CATTACGA | -0.137 |
| ATAACCCG | 0.158 |
| CTGTACGA | -0.215 |
| AGTGTGAG | -0.141 |
| CAAATCCA | -0.0959 |
| CGCCACCG | 0.0914 |
| AAGGACTT | -0.162 |
| AGCCTCAT | -0.049 |
| ATCTCATC | -0.00918 |
| CGAACCCA | -0.00188 |
| AAACTCTC | 0.0902 |
| CATGGTTA | -0.0564 |
| AGAGCGGA | 0.229 |
| AATCACCT | -0.0927 |
| AAGGGTCT | -0.251 |
| CTTGGATA | -0.0622 |
